Source: PubChem BioAssay AID588342 (National Center for Advancing Translational Sciences (NCATS), 2011)
Where “and” joins values, the source holds several entries; their conditions need not be identical. Equal entries are not always repeated. Out of some 360,000 compounds screened, about 25,000 (6.9%) were called active. The inconclusive results got no clear call from the source; some entries with a clear call stand among them for comparison. Calls follow the shape of the dose curve; as a rule, active = well fitted inhibition curve with a large enough effect; inconclusive = small, poorly fitted or top-dose-only effect; inactive = flat fitted curve, though single readings scatter. Potencies beside an inconclusive call are fits to weak or partial responses and may not hold up.

What follows are molecules tested against Luciferin 4-monooxygenase (Photinus pyralis) (UniProt P08659) (assay: qHTS profiling assay for firefly luciferase inhibitor/activator using purifed enzyme and Km concentrations of substrates (counterscreen for miR-21 project)). Settings: purified FLuc, luminescence inhibition; activity change, negative = inhibition: at 57.5 µM (top of the series).
Sequence of UniProt P08659 (P08659 whole entry, looked up): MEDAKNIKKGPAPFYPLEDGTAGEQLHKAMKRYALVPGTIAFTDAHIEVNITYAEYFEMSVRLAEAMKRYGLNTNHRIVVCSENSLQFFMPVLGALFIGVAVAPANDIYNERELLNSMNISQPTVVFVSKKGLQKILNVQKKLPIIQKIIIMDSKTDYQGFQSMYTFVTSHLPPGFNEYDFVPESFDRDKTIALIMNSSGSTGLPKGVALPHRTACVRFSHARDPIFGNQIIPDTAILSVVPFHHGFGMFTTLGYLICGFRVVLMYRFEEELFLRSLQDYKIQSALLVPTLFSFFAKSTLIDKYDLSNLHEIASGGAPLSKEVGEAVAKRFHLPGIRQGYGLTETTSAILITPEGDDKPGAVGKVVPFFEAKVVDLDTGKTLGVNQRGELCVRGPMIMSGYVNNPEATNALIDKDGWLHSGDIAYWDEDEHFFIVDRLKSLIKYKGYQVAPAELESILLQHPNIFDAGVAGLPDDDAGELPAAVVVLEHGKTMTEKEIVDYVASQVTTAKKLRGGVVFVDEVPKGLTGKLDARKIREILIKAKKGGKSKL
Procedure, shortened: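 Purified P. pyralis luciferase (10nM final) with 10uM D-luciferin and 10uM ATP (Km levels) in 50mM Tris acetate pH 7.5, 10mM Mg acetate, 0.01% Tween-20, 0.05% BSA; qHTS 6-point titration, ~60 µM downward; luminescence read.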
Also: nearly all actives have a fitted effect of over 55% in size.
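For activity change, negative = inhibition in this document: plate controls were vehicle for no effect and reference inhibitor for full effect.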
Potency is read from the fitted curve at half-maximal effect; tags tell the direction and shape of the fitted curve.

SMILES | Potency | activity change, negative = inhibition
O=C(O)c1ccc(-c2ccc(OS(=O)(=O)c3ccccc3F)cc2)cc1 | active: 12 µM | –
COc1ccc(-c2ccc(C3C(C#N)=C(N)Oc4n[nH]c(C)c43)o2)cc1 (stereo not drawn) | inconclusive: 23.9 µM [inhibitor, single point] | –
O=C(CC1C(=O)NCCN1CC1CCCCC1)NCc1ccc(F)cc1F (stereo not drawn) | inconclusive: 3.38 µM [inhibitor, full curve] | –
CC(C)(C)c1ccc(C(=O)Nc2ccc(Cl)cc2)cc1 | inconclusive: 1.07 µM [inhibitor, full curve] | –
CN(CC(=O)NCCc1ccccc1)Cc1ccco1 | inconclusive: 26.9 µM [inhibitor, single point] | –
O=C(Nc1ccc(NC(=O)C2CCCCC2)nc1)c1ccco1 | inconclusive: 23.9 µM [inhibitor, partial curve, poor fit] | –
Cc1[nH]c2ccccc2c1/C=N/NC(=O)c1cccc(Br)c1 | inconclusive: 33.8 µM [inhibitor, single point] | –
Cc1cc(NC(=O)CCSc2ccccc2)ccc1Br | active: 23.9 µM | –
COc1ccc(C(=O)Nn2c(SCC(=O)NCC3CCCO3)nc3ccccc3c2=O)cc1 (stereo not drawn) | active: 0.757 µM | –
COc1ccc(-c2nc(NC(=O)c3[nH]c(C)c(C(C)=O)c3C)sc2C)cc1 | inconclusive: 26.9 µM [inhibitor, single point] | –
O=C(O)CC1NC(=O)N(C2CCCCC2)C1=O (stereo not drawn) | inactive | –
CCOC(=O)c1cccc(NS(=O)(=O)c2cc(-c3cnc(C4CC4)o3)ccc2C)c1 | inconclusive: 30.1 µM [inhibitor, single point] | –
CCOc1ccc(C(CC(=O)O)NC(=O)CCCOc2ccc(Cl)cc2C)cc1 (stereo not drawn) | inconclusive: 19 µM [inhibitor, partial curve, poor fit] | –
Cc1cc2c(c(=O)n1-c1ccccc1)C1O[C@](c3ccsc3)(Cc3cc(C#N)ccc31)O2 | – | inactive: 1.4% [at 11.5 µM]
Cc1ccc(CNc2ccc(Cl)cc2[N+](=O)[O-])cc1 | inconclusive: 19 µM [inhibitor, single point] | –
CCOc1ccc(NC(=O)Nc2cccnc2)cc1 | active: 7.57 µM | –
CC(C)c1nc(C#N)c(NN)o1 | inconclusive: 12 µM [inhibitor, partial curve] | –
Cc1cccc(/C=N/n2c(-c3cc(-c4ccccc4)n[nH]3)n[nH]c2=S)c1 | inconclusive: 16.9 µM [inhibitor, partial curve] | –
CCOC(=O)c1c(S(=O)(=O)N2CCCC(C(=O)Nc3ccc(C)cn3)C2)c(C)n(C)c1C (stereo not drawn) | inactive | –
CCCCCN(C(=O)CSc1n[nH]c(-c2ccc(C)cc2)n1)c1c(N)n(CCCC)c(=O)[nH]c1=O | active: 2.69 µM | –
CS(=O)(=O)c1ccccc1C(=O)Nc1cccc2ncccc12 | inactive | –
O=C(O)CCC(=O)Nc1sc2c(c1C(=O)Nc1ccccc1)CCCCC2 | inconclusive: 21.3 µM [inhibitor, single point] and inconclusive: 19 µM [inhibitor, partial curve] | –
O=C(N/N=C/C=C/c1ccccc1)c1ccccc1Br | inconclusive: 30.1 µM [inhibitor, partial curve, poor fit] | –
COc1ccccc1-c1ccc(SCc2cccc(C)c2)nn1 | inconclusive: 26.9 µM [inhibitor, single point] | –
Cc1ccccc1NC(=O)Cc1nc(COC(=O)c2ccc(O)cc2O)cs1 | inconclusive: 33.8 µM [inhibitor, partial curve, poor fit] | –

SMILES | Potency | activity change, negative = inhibition
CN(CC(=O)Nc1ccc(N2CCOCC2)cc1)C(=O)c1cc2c(s1)CCCC2 | inactive | –
Cc1cc(N/N=C/c2ccncc2)nc2ccccc12 | active: 10.7 µM | –
CCC1CCc2c([nH]c3ccccc3c2=O)O1 (stereo not drawn) | inconclusive: 37.9 µM [inhibitor, partial curve, poor fit] | –
Cc1c(C(=O)C(=O)N2c3ccc(F)cc3CCC2C)c2ccccc2n1C (stereo not drawn) | inactive | –
CC(CNC(=O)CCc1cn(Cc2ccccc2Cl)c2ccccc12)c1ccccc1 (stereo not drawn) | inactive | –
O=C(NCC1CCCO1)c1cn(-c2ccccc2)nc1-c1ccccc1 (stereo not drawn) | active: 6.75 µM | –
C/C(=C\C(=O)c1ccccc1)Nc1cccc(O)c1 | active: 3.38 µM | –
CCOc1ccc(NC(=O)c2ccccc2NC(=O)CN2CCCCCC2)cc1 | inconclusive: 23.9 µM [inhibitor, partial curve, poor fit] | –
COc1cc(-c2nnc(-c3ccncc3)o2)ccc1OCc1ccccc1 | inconclusive: 12 µM [inhibitor, partial curve] | –
Cc1cc(C)cc(NC(=O)Nc2ccc3nc(N4CCN(C)CC4)cc(C)c3c2)c1 | inactive | –
Cc1cccc(-c2nc(CNC(=O)c3ccco3)cs2)c1 | inconclusive: 37.9 µM [inhibitor, partial curve, poor fit] | –
O=C1NN(c2ccc(F)cc2)C(=O)/C1=C\C=C\c1ccco1 | inconclusive: 21.3 µM [inhibitor, partial curve, poor fit] | –
O=C(Nc1ccc(OCC(=O)N2CCOCC2)cc1)c1ccccc1Cl | active: 1.69 µM | –
CCN1CCN(Cc2ccc(NC(=O)c3ccc(C)c(NC(=O)c4cc(-c5ccc(Br)cc5)n[nH]4)c3)cc2C(F)(F)F)CC1 | inconclusive: 37.9 µM [inhibitor, single point] | –
O=C(NC1CCCc2ccccc21)c1ccc2c(c1)sc1nc(-c3ccccc3)cn12 (stereo not drawn) | inactive | –
O=C(Cn1c(=O)n(Cc2ccccc2)c(=O)c2sc3ccccc3c21)Nc1ccccc1F | inactive | –
O=C(Nc1ccc2c(c1)CCCN2C(=O)c1cccs1)c1ccccc1 | inconclusive: 26.9 µM [inhibitor, single point] and inconclusive: 23.9 µM [inhibitor, partial curve] | –
Cc1ccc(/C=N/NC(=O)c2nc3nc(C)cc(C)n3n2)cc1 | inconclusive: 23.9 µM [inhibitor, partial curve, poor fit] | –
Cc1cc(C)nc(N/N=C/c2ccc(Cl)cc2)n1 | inconclusive: 37.9 µM [inhibitor, partial curve, poor fit] | –
COc1ccc(C)cc1Nc1n[n+](-c2ccccc2)c(-c2ccc(N(C)C)cc2)s1 | inactive | –
COc1ccc(C2CC(=O)N(C)c3ccccc3S2)cc1OC (stereo not drawn) | inconclusive: 26.9 µM [inhibitor, single point] | –
O=C(NC(=O)c1ccccc1)C1=C(N2CCCC2)COC1=O | inconclusive: 12.6 µM [inhibitor, partial curve, poor fit] | –
Cc1ccc(NCc2nnc(SCC(=O)Nc3cccc(O)c3)n2CC2CCCO2)c(C)c1 (stereo not drawn) | inconclusive: 30.1 µM [inhibitor, partial curve, poor fit] | –
Cc1cc(NC(=O)C2CC(=O)N(c3ccccc3Cl)C2)no1 (stereo not drawn) | inactive | –
Cc1noc(NS(=O)(=O)c2ccc(N/C=C/C(=O)c3ccc4c(c3)OCO4)cc2)c1C | active: 10.7 µM | –

SMILES | Potency | activity change, negative = inhibition
COC(=O)c1c(C)[nH]c(C(=O)CSc2ccc(Cl)cc2)c1C | active: 4.78 µM | –
N#CCC(=O)Nc1ccc(C(=O)OCC(=O)Nc2cccc(C(F)(F)F)c2)cc1 | inactive | –
O=c1c2cc(-c3ccccc3)sc2nc2n1CCC2 | active: 3.01 µM | –
COc1ccc(/C=N/N2CCOCC2)cc1O | inconclusive: 19 µM [inhibitor, partial curve] | –
Cc1cc(NC(=O)c2ccc3c(c2)OCO3)ccc1NC(=O)c1ccccc1 | inconclusive: 6.01 µM [inhibitor, full curve] | –
CCCCN(C)C(=O)CNC(=O)c1nn(-c2ccc(OC)cc2OC)c(=O)c2ccccc12 | inconclusive: 16.9 µM [inhibitor, partial curve] | –
O=C(O)c1ccccc1SSc1ccccc1C(=O)O | inactive | –
COc1ccc(COC(=O)c2n[nH]c3ccccc23)cc1F | active: 19 µM | –
O=C(/C=C/c1ccccc1)Nc1scc(-c2ccccc2)c1C(=O)O | active: 3.01 µM | –
Cc1ccc(S(=O)(=O)Nc2nc3ccccc3s2)cc1[N+](=O)[O-] | inconclusive: 37.9 µM [inhibitor, single point] | –
Oc1cccc(/C=N/Nc2cccc3cccnc23)c1 | active: 0.675 µM | –
Cc1ccc2cc(NC(=O)c3ccccc3C)ccc2n1 | active: 5.36 µM | –
Cc1ccc(Cn2c(CNC(=O)CCc3ccccc3)nc3cccnc32)cc1 | inactive | –
CCn1nc(NC(=O)c2ccco2)c2cc3cc(C)ccc3nc21 | inconclusive: 21.3 µM [inhibitor, partial curve] | –
CCOC(=O)C(=O)N(Nc1ccc(C)cc1)c1ccc(C)cc1 | inconclusive: 37.9 µM [inhibitor, single point] | –
COC(=O)c1ccccc1NC(=O)c1cnc(Nc2ccc(OC)cc2)c2ccccc12 | inactive | –
Cc1cc(/C=N/NC(N)=O)c(C)n1C1CCCCC1 | inconclusive: 26.9 µM [inhibitor, single point] | –
c1ccc(-c2nnc(CSc3nnc(-c4cccs4)o3)o2)cc1 | inactive | –
CCOc1cc(Br)cc(C2NC(=O)c3c(sc4c3CCN(C)C4)N2)c1O (stereo not drawn) | inconclusive: 21.3 µM [inhibitor, partial curve] | –
CCSc1cc(C)nc2c(-c3ccccc3)cnn12 | active: 3.01 µM | –
Cc1scc(C(=O)N/N=C/c2ccc(OCC(C)C)cc2)c1C | inconclusive: 15.1 µM [inhibitor, partial curve] | –
COc1ccc(CNC(=O)CSc2ncc3c(n2)-c2ccc(Cl)cc2N(Cc2ccc(F)cc2)S3(=O)=O)cc1OC | inactive | –
C#C[C@]1(O)CC[C@H]2[C@@H]3CCc4cc(O)ccc4[C@H]3CC[C@@]21C | inconclusive: 26.9 µM [inhibitor, partial curve, poor fit] | –
